# Data: PubChem BioAssay AID1030 (National Center for Advancing Translational Sciences (NCATS), 2008)
# Screen size: about 220,000 compounds; about 16,000 (7.3%) were called active. The inconclusive results got no clear call from the source; some entries with a clear call stand among them for comparison. Calls come from the whole dose curve; as a rule, active = well fitted inhibition curve with a large enough effect (not every such curve was filed as active); inconclusive = small, poorly fitted or top-dose-only effect, or another doubt; inactive = no such curve, though single readings can be large or run the other way. Potencies of inconclusive entries are left out as doubtful fits.
# Target: Aldehyde dehydrogenase 1A1 (Homo sapiens) (UniProt P00352)
# Assay: qHTS Assay for Inhibitors of Aldehyde Dehydrogenase 1 (ALDH1A1)
# Conditions: Purified ALDH1A1, NADH fluorescence, propionaldehyde substrate; series mostly up to 75.3 µM
# Potency is the fitted concentration of half-maximal effect; tags give direction and shape of the fitted curve.
# UniProt P00352, sequence (P00352 whole entry, looked up): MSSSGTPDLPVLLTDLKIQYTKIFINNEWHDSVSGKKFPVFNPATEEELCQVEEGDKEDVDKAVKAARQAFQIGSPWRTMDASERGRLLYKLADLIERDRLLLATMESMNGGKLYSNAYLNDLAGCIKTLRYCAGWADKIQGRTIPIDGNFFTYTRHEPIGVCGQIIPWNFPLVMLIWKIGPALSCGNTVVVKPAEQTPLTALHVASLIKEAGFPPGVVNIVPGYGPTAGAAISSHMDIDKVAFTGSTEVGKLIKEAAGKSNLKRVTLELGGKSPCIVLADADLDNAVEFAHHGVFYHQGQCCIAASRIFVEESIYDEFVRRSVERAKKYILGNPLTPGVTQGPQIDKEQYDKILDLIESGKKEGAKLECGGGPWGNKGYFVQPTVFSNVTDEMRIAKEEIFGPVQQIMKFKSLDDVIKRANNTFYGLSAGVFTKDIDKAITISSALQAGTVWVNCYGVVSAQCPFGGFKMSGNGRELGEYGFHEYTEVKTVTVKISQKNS
row,Compound,Potency
1,CN(C)/C=C/C(=O)c1ccc(S(=O)(=O)c2ccccc2)cc1,"inconclusive [inhibitor, partial curve]"
2,COC(=O)c1cc(OC)c(OC)cc1NC(=O)CN1C(=O)c2ccccc2C1=O,"inconclusive [inhibitor, single point]"
3,COc1ccccc1OCC(=O)Nc1cccc(C(=O)N2CCOCC2)c1,"inconclusive [inhibitor, single point]"
4,COc1ccc(CCNC(=O)C(=O)NCC2OCCN2S(=O)(=O)c2ccc(Br)cc2)cc1OC (stereo not given),"inconclusive [inhibitor, single point]"
5,COc1ccc(OC)c(/C=N/NC(=O)Cc2nc3ccccc3[nH]2)c1,"inconclusive [inhibitor, partial curve]"
6,CC(=O)c1cccc(OCC(=O)c2cc(C)n(-c3cc(C)on3)c2C)c1,inactive
7,CCCC(=Nc1ccccc1)C1=C(O)C(C(=O)OC)C(C)(C)CC1=O (stereo not given),"inconclusive [inhibitor, single point]"
8,O=C(COC(=O)c1ccccc1-c1ccccc1[N+](=O)[O-])c1ccccc1,inactive
9,COc1nc(N(C)C)nc(N(C#N)CCOC(C)=O)n1,"inconclusive [inhibitor, single point]"
10,Cc1ccc(NC(=O)N2CCCN(Cc3ccc(F)cc3)C2)cc1C,inactive
11,Clc1ccc(-c2nc3ncccn3c2Cl)cc1,"inconclusive [inhibitor, full curve]"
12,Cc1ccc(-n2c(O)c(/C=N/c3ncn[nH]3)c3ccccc3c2=O)cc1,"inconclusive [inhibitor, single point]"
13,O=C1NC(c2ccc(Cl)cc2)Nc2ccccc21 (stereo not given),"inconclusive [inhibitor, single point]"
14,Cc1cccc(N2CCN(C(=O)c3cc(S(=O)(=O)N(C)C)ccc3N3CCCC3)CC2)c1C,"inconclusive [inhibitor, single point]"
15,Nc1nncn1C(=O)CCCOc1ccc(Cl)cc1Cl,inactive
16,CC(C)c1cccc(OCCCCN(C)C)c1,"inconclusive [inhibitor, full curve]"
17,COc1cccc(-c2nc(NCc3ccco3)c3ccccc3n2)c1O,"inconclusive [inhibitor, single point]"
18,CN(O)/C=C1\C(=O)Nc2ccccc21,"inconclusive [inhibitor, single point]"
19,CCN(CC)c1ccc(/C=N/N2C(=O)c3ccccc3C2=O)cc1,"inconclusive [inhibitor, single point]"
20,CC(=O)CCc1c(C)nc2ccc(C)cc2c1Cl,inactive
21,C1=C(CCNc2ncnc3c2cnn3-c2ccccc2)CCCC1,"inconclusive [inhibitor, single point]"
22,Cc1ccc2[nH]c(-c3ccc(F)cc3F)cc(=O)c2c1,"inconclusive [inhibitor, single point]"
23,O=C(O)c1ccc2c(c1)SC1=NS(=O)(=O)CCN12,"inconclusive [inhibitor, single point]"
24,Cc1ccccc1Cn1c(C)cc(C)c(C#N)c1=O,"inconclusive [inhibitor, partial curve]"

row,Compound,Potency
1,O=[N+]([O-])c1cc([N+](=O)[O-])c2n[nH]c(-c3ccccc3)c2c1,inactive
2,CCCC(=O)c1c[nH]c(C(=O)NCCc2ccccn2)c1,inactive
3,O=C(Nc1ccc(Cc2ccncc2)cc1)c1ccc(S(=O)(=O)N2CCOCC2)cc1,"inconclusive [inhibitor, partial curve]"
4,CN(C)C(=O)c1ccc(-c2cc(NCc3cccnc3)ncn2)cc1,"inconclusive [inhibitor, partial curve]"
5,CCCCn1c(SCc2ccc(Cl)cc2)nc2c1c(=O)[nH]c(=O)n2C,active: 28.2 µM
6,COc1ccc(OC)c(/C=N/NC(=O)c2cc3c(OC)c(OC)ccc3[nH]2)c1,inactive
7,Cc1ccc(NC(=O)C(=O)NCc2ccco2)c(C)c1,inactive
8,CCOC(=O)c1ccccc1NC(=O)CN(c1ccccc1OCC)S(C)(=O)=O,"inconclusive [inhibitor, single point]"
9,S=c1[nH]nc(CN2CCCCC2)n1-c1ccc(Cl)cc1,inactive
10,COc1ccc(C(=O)/C=C/Nc2c(C)n(C)n(-c3ccccc3)c2=O)c(OC)c1,"inconclusive [inhibitor, single point]"
11,O=C(CSc1nc2ccccc2s1)N1CCCCC1,active: 4.47 µM
12,O=C(COC(=O)CSc1ccc2ccccc2c1Br)NC1CC1,inactive
13,Cc1cccc(NC(=S)NNC(=O)c2ccco2)c1,"inconclusive [inhibitor, single point]"
14,COC(=O)[C@@H](NC(=O)NCc1ccco1)C(C)C,active: 10 µM
15,CCOC(=O)/C(C#N)=C/C1=C(N2CCCC2)CC(C)(CC)OC1 (stereo not given),"inconclusive [inhibitor, single point]"
16,O=C(Nc1ccc(F)cc1)C(c1ccccc1)N1CCN(S(=O)(=O)c2ccc3ccccc3c2)CC1 (stereo not given),"inconclusive [inhibitor, partial curve]"
17,O=C(O)C(=O)/C(=C\c1cccc2ccccc12)c1ccc2ccccc2n1,"inconclusive [inhibitor, partial curve]"
18,CC1CCN(S(=O)(=O)c2ccc3c(c2)CCN3C(=O)CCC(=O)O)CC1,inactive
19,CCS(=O)(=O)NCc1ccc2c(c1)cc(C)n2C,"inconclusive [inhibitor, single point]"
20,CC1=C(C(=O)Nc2ccccc2)C(c2ccncc2)C(C#N)=C(SCC(=O)NC(C)C)N1 (stereo not given),"inconclusive [inhibitor, partial curve, poor fit]"
21,CNS(=O)(=O)c1ccc(NC(=O)c2ccccn2)cc1,inactive
22,CC(=O)c1ccc(N2CCN(C(=O)C3CCCN(S(=O)(=O)c4cnc[nH]4)C3)CC2)cc1 (stereo not given),"inconclusive [inhibitor, single point]"
23,COc1ccc2c(c1)CCc1c(C(=O)Nc3cc(C)n(Cc4ccc(Cl)cc4)n3)noc1-2,"inconclusive [inhibitor, single point]"
24,C=CCc1c(C)nc2c(C)cccc2c1SC(=N)N,inactive

row,Compound,Potency
1,COC(=O)NC(c1ccccc1)C1(C(=O)OC)C(=O)Cc2ccccc21 (stereo not given),"inconclusive [inhibitor, single point]"
2,CC1(C)CC(=O)C2=C(C1)Nc1cc3c(cc1C2c1ccc(F)cc1)OCO3 (stereo not given),"inconclusive [inhibitor, partial curve]"
3,OCCC1CN(Cc2ccc3cc(Cl)ccc3n2)CCN1Cc1ccsc1 (stereo not given),"inconclusive [inhibitor, single point]"
4,Cc1cc(=O)oc2cc(OCC(O)CN3CCc4ccccc4C3)ccc12 (stereo not given),"inconclusive [inhibitor, partial curve]"
5,Cc1cc(C)c(OCCN2C(=O)NC(C)(C)C2=O)c(Cl)c1,"inconclusive [inhibitor, single point]"
6,C/C(=N\NC(=O)c1nc2ccccn2c1C)c1ccc2c(c1)OCO2,"inconclusive [inhibitor, single point]"
7,O=C1CC(c2cccs2)c2cc3c(cc2N1)OCCO3 (stereo not given),"inconclusive [inhibitor, single point]"
8,N#CC1=C(N)NC(=S)C(C(N)=O)C1c1ccc([N+](=O)[O-])cc1 (stereo not given),inactive
9,O=C(Nc1nnc(-c2ccco2)o1)C1CCCCC1,"inconclusive [inhibitor, single point]"
10,COc1ccc(N(CC(=O)Nc2ccc3c(c2)OCO3)S(=O)(=O)c2c(C)nn(C)c2C)cc1,"inconclusive [inhibitor, partial curve, poor fit]"
11,O=C(Nc1ccc(NC(=O)C2CC2)nc1)c1ccncc1,"inconclusive [inhibitor, partial curve]"
12,COC(=O)[C@@]1(Cc2ccc(OC)cc2)[C@H]2c3cc(C(=O)N4CCCC4)n(CCc4c[nH]c5ccc(OC)cc45)c3C[C@H]2CN1C(=O)c1ccccc1,"inconclusive [inhibitor, single point]"
13,Nc1ccc(Cl)cc1/C(=N/O)c1ccccc1,inactive
14,CCOC(=O)c1[nH]c2ccccc2c1CCCN1C(=O)c2ccccc2C1=O,"inconclusive [inhibitor, single point]"
15,CCn1c(=O)cc(SCC(=O)Nc2ccc3c(c2)OCO3)c2ccccc21,"inconclusive [inhibitor, partial curve]"
16,CCc1cccc(C)c1NC(=O)c1cccc(N(C)C)c1,"inconclusive [inhibitor, partial curve]"
17,O=C(NC(=S)Nc1cc(C(F)(F)F)ccc1Cl)c1ccccc1,active: 25.1 µM
18,COc1cc(/C=C/C(=O)c2ccc(Cl)s2)cc(OC)c1O,"inconclusive [inhibitor, single point]"
19,Cc1ccc(N=Nc2c(C)[nH]n(-c3ccccc3)c2=O)c(C)c1,"inconclusive [inhibitor, partial curve]"
20,O=C(Nc1ccc2nc(-c3ccccn3)[nH]c2c1)C1CCCCC1,"inconclusive [inhibitor, single point]"
21,O=[N+]([O-])c1cccc(S(=O)(=O)NCCCN2CCOCC2)c1,"inconclusive [inhibitor, single point]"
22,O=C(Nc1cc(Oc2ccc(Cl)cc2)cc([N+](=O)[O-])c1)c1ccco1,inactive
